The record followed here is paper PMC5515408.

The list shows a part of the results. At the low end of the ranking the order means little.

In this assay the test system is MYC (p64) + MAX (p21), in MYC:MAX. As to the kind of experiment: protein-binding microarray (anti-MAX antibody). Particulars: PBM: 15 mM Tris-HCl pH 7.5, 100 mM KCl, 0.075% NP40, 7.5 mM beta-mercaptoethanol, 375 ng/ul BSA, 8 ng/ul poly(dA-dT):(dA-dT), 550 ng complex, 60 min, room …; high values mean tight binding; double strand, one strand shown; sequences stand for … in CCGGC…TTAATAGCTAAGATTACTATATCGACG
Regarding TGAAGAGAGGTA, the binding signal (log2 normalized fluorescence) turned out to be 0.031.

On to AAACACGATGTT, for which the binding signal (log2 normalized fluorescence) came to 0.827.

For TGATTGCCCGTA, the binding signal (log2 normalized fluorescence) was found to be 0.0198.

As for TGAATGGTAGTA, the binding signal (log2 normalized fluorescence) was determined as 0.179.

Regarding TGACTTTCCGTA, the binding signal (log2 normalized fluorescence) was 0.0346.

For the sequence TGAATCCTGGTA, the binding signal (log2 normalized fluorescence) is -0.0163.

Regarding TGAAGCAGAGTA, the binding signal (log2 normalized fluorescence) is -0.0166.

Take TGACACGGTTTA: the binding signal (log2 normalized fluorescence) came to 0.34.

TGAAGACCTGTA: the binding signal (log2 normalized fluorescence) came to 0.0334.

Turning to TGAATGGGGGTA, the binding signal (log2 normalized fluorescence) amounted to 0.667.

On to AGACACGATGTA, for which the binding signal (log2 normalized fluorescence) stood at 0.758.

For TGAACTCGTGTA, the binding signal (log2 normalized fluorescence) was determined as 0.606.

TTACACGTGTTA: the binding signal (log2 normalized fluorescence) was 1.05.

Consider TGACCCCGGGTA, for which the binding signal (log2 normalized fluorescence) came to 0.00322.

Turning to TGAAGATACGTA, the binding signal (log2 normalized fluorescence) is -0.0327.

As to TGGCACGCGGTA, the binding signal (log2 normalized fluorescence) was 0.538.

Take TGAGCACGGGTA: the binding signal (log2 normalized fluorescence) was determined as 0.289.

On to TGAGATAGTGTA, for which the binding signal (log2 normalized fluorescence) was -0.0988.

For TTGGACGTGGTA, the binding signal (log2 normalized fluorescence) was 0.287.

With TGACTGAATGTA, the binding signal (log2 normalized fluorescence) was found to be 0.141.

As for GCAAACGTGGTA, the binding signal (log2 normalized fluorescence) came to 0.579.

Take TGAAGCGGAGTA: the binding signal (log2 normalized fluorescence) was -0.165.

With TGACGAGGTGTA, the binding signal (log2 normalized fluorescence) stood at 0.293.

Consider TGATGCCGTGTA, for which the binding signal (log2 normalized fluorescence) was 0.205.

For the sequence TGAGCAAGCGTA, the binding signal (log2 normalized fluorescence) amounted to 0.119.

Consider TGATCTTTAGTA, for which the binding signal (log2 normalized fluorescence) is -0.0298.

As for TGACACGTCAAA, the binding signal (log2 normalized fluorescence) was 0.598.

Consider TGAAAGTGTGTA, for which the binding signal (log2 normalized fluorescence) worked out at 0.0834.

As to TGATTATGCGTA, the binding signal (log2 normalized fluorescence) amounted to 0.0442.

In the case of TAACACGTGGTT, the binding signal (log2 normalized fluorescence) came out at 1.01.

For TGACTTTAGGTA, the binding signal (log2 normalized fluorescence) was -0.173.

Regarding TGAGTGGGCGTA, the binding signal (log2 normalized fluorescence) was 0.162.

On to TGAAACATCGTA, for which the binding signal (log2 normalized fluorescence) was found to be 0.226.

For the sequence TGACGCCAAGTA, the binding signal (log2 normalized fluorescence) amounted to 0.114.

For TGAATTTAGGTA, the binding signal (log2 normalized fluorescence) was -0.246.

Consider TGACCCGACGTA, for which the binding signal (log2 normalized fluorescence) was 0.117.

In the case of TGACAAGCGGTA, the binding signal (log2 normalized fluorescence) amounted to 0.238.

Turning to TGAACGCTAGTA, the binding signal (log2 normalized fluorescence) amounted to 0.178.

Consider TGATAAGGTGTA, for which the binding signal (log2 normalized fluorescence) worked out at 0.0319.

Consider TGACGGTGCGTA, for which the binding signal (log2 normalized fluorescence) was determined as 0.0818.

Take TGACACATCGTA: the binding signal (log2 normalized fluorescence) came out at 0.252.

In the case of TGATCACTAGTA, the binding signal (log2 normalized fluorescence) is 0.124.

Regarding TGACACGTGTGG, the binding signal (log2 normalized fluorescence) turned out to be 0.792.

Regarding TGACACGTGCGA, the binding signal (log2 normalized fluorescence) was found to be 0.786.

For CGACACGTTGTT, the binding signal (log2 normalized fluorescence) was 0.661.

TGAACAAGGGTA: the binding signal (log2 normalized fluorescence) was found to be 0.093.

In the case of AGAAACGCGGTA, the binding signal (log2 normalized fluorescence) was found to be 0.575.

For TGACTTCAAGTA, the binding signal (log2 normalized fluorescence) was -0.0414.

For the sequence TGATTTACGGTA, the binding signal (log2 normalized fluorescence) is -0.0682.

Consider TGAAGATAAGTA, for which the binding signal (log2 normalized fluorescence) turned out to be 0.0111.

Consider TGATTACATGTA, for which the binding signal (log2 normalized fluorescence) came out at 0.234.

With TGACTGTGTGTA, the binding signal (log2 normalized fluorescence) worked out at 0.107.

For the sequence TGAAAGTTGGTA, the binding signal (log2 normalized fluorescence) was -0.0779.

Turning to TGACAAGGTGTA, the binding signal (log2 normalized fluorescence) stood at 0.404.

On to CGACCTTAAGGC, for which the binding signal (log2 normalized fluorescence) stood at 0.161.

With TGAAGTACACTT, the binding signal (log2 normalized fluorescence) is 0.308.

For the sequence TGAGTAACTGTA, the binding signal (log2 normalized fluorescence) was -0.0948.

For the sequence TGAGTCAAGGTA, the binding signal (log2 normalized fluorescence) was -0.0529.

Regarding TGATAACTGGTA, the binding signal (log2 normalized fluorescence) is -0.0186.

With TGACACGTGCTT, the binding signal (log2 normalized fluorescence) came to 0.771.

TGACCGGGCGTA: the binding signal (log2 normalized fluorescence) turned out to be 0.223.

For the sequence TGAACCGTCGTA, the binding signal (log2 normalized fluorescence) was found to be 0.0573.

Take TGAAGGTCCGTA: the binding signal (log2 normalized fluorescence) was 0.107.

Take TGAGATTTCGTA: the binding signal (log2 normalized fluorescence) was -0.126.

Regarding TGAGGTTGTGTA, the binding signal (log2 normalized fluorescence) was -0.0504.

As for TGACTACCCGTA, the binding signal (log2 normalized fluorescence) amounted to 0.212.

For TGAGAAGCAGTA, the binding signal (log2 normalized fluorescence) is -0.0873.

GGACACGGGGTT: the binding signal (log2 normalized fluorescence) is 0.494.

Turning to TGACGAGACGTA, the binding signal (log2 normalized fluorescence) stood at 0.0535.

Regarding TGAGACGGCGTA, the binding signal (log2 normalized fluorescence) is 0.02.

On to TGATTGAGCGTA, for which the binding signal (log2 normalized fluorescence) was -0.14.

In the case of TGACTGGAGGTA, the binding signal (log2 normalized fluorescence) stood at 0.07.

Turning to TGACGCTGAGTA, the binding signal (log2 normalized fluorescence) turned out to be 0.207.

Take TGAGCCTAGGTA: the binding signal (log2 normalized fluorescence) is -0.239.

Regarding TGAACCATGGTA, the binding signal (log2 normalized fluorescence) turned out to be 0.153.

Turning to TGATAGACCGTA, the binding signal (log2 normalized fluorescence) is 0.0117.

For TGAACAAGCGTA, the binding signal (log2 normalized fluorescence) amounted to 0.0159.

As to TGATTTAAAGTA, the binding signal (log2 normalized fluorescence) is -0.115.

For TGACCTGGCGTA, the binding signal (log2 normalized fluorescence) was 0.157.

As to TGACCGTTAGTA, the binding signal (log2 normalized fluorescence) worked out at 0.0484.

With TGAACCTCCGTA, the binding signal (log2 normalized fluorescence) is 0.191.

As for TGAGATCTAGTA, the binding signal (log2 normalized fluorescence) is -0.0579.

With TGAAGAAGAGTA, the binding signal (log2 normalized fluorescence) is -0.139.

As for TGACGGAGGGTA, the binding signal (log2 normalized fluorescence) was 0.0182.

As to TGATCCGCCGTA, the binding signal (log2 normalized fluorescence) was -0.142.

As for TGATGACTGGTA, the binding signal (log2 normalized fluorescence) worked out at 0.0318.

As to TGATACGTGATA, the binding signal (log2 normalized fluorescence) was 0.107.

On to TGACACGTCTCA, for which the binding signal (log2 normalized fluorescence) is 0.462.

Turning to TGACCTCCGGTA, the binding signal (log2 normalized fluorescence) is -0.0525.

As for TGAACCCAGGTA, the binding signal (log2 normalized fluorescence) worked out at 0.207.

Turning to TGATATAGGGTA, the binding signal (log2 normalized fluorescence) was -0.0127.

On to TGACACGTGCAA, for which the binding signal (log2 normalized fluorescence) amounted to 0.779.

As for TGACACACGTTA, the binding signal (log2 normalized fluorescence) is 0.532.

Turning to TATAACGTGGTA, the binding signal (log2 normalized fluorescence) is 0.627.

In the case of TGACACGTTGCG, the binding signal (log2 normalized fluorescence) was 0.491.

For TGAAGCCTAGTA, the binding signal (log2 normalized fluorescence) was -0.229.

Take TAATACGTGGTA: the binding signal (log2 normalized fluorescence) amounted to 0.38.

With TGAGTAAGTGTA, the binding signal (log2 normalized fluorescence) is -0.0298.

As to TGATCGGAGGTA, the binding signal (log2 normalized fluorescence) was -0.0816.

Regarding AAGGACGTGGTT, the binding signal (log2 normalized fluorescence) came to 0.419.

On to TGAATATGGGTA, for which the binding signal (log2 normalized fluorescence) was 0.0891.

On to TGAATATGTGTA, for which the binding signal (log2 normalized fluorescence) worked out at 0.145.

Turning to TGAGAGTAGGTA, the binding signal (log2 normalized fluorescence) is -0.165.

For the sequence TGAATGGTGGTA, the binding signal (log2 normalized fluorescence) was found to be 0.205.

As for TGAGGGGCGGTA, the binding signal (log2 normalized fluorescence) is 0.593.

Turning to TGAACACGAGTA, the binding signal (log2 normalized fluorescence) came to 0.44.

Regarding TGACTACTGGTA, the binding signal (log2 normalized fluorescence) stood at 0.0391.

For the sequence TGATAACTAGTA, the binding signal (log2 normalized fluorescence) is -0.129.

With TGATATCAGGTA, the binding signal (log2 normalized fluorescence) was found to be 0.107.

Turning to TGATTGCGAGTA, the binding signal (log2 normalized fluorescence) is -0.0261.

Consider TGAACTGAGGTA, for which the binding signal (log2 normalized fluorescence) is -0.0372.

As to TGACACGATCTA, the binding signal (log2 normalized fluorescence) was 0.385.

Consider TGAGGTGGTGTA, for which the binding signal (log2 normalized fluorescence) came out at 0.00542.

For the sequence TGAGGTCGGGTA, the binding signal (log2 normalized fluorescence) is -0.142.

With TGACAAATCGTA, the binding signal (log2 normalized fluorescence) came to 0.0848.

For TGAAGCCCCGTA, the binding signal (log2 normalized fluorescence) was 0.000961.

Turning to TGATACCTTGTA, the binding signal (log2 normalized fluorescence) is 0.113.

With TGAGAATCAGTA, the binding signal (log2 normalized fluorescence) is -0.0698.

Regarding TGATGGACCGTA, the binding signal (log2 normalized fluorescence) amounted to 0.119.

Take TGACTAATTGTA: the binding signal (log2 normalized fluorescence) was -0.0207.

In the case of TGAGGCGTTGTA, the binding signal (log2 normalized fluorescence) came out at 0.118.

With TGATAAAGCGTA, the binding signal (log2 normalized fluorescence) is -0.175.

On to TGAACGGAGGTA, for which the binding signal (log2 normalized fluorescence) is -0.0159.

As to CGACACGGGGTC, the binding signal (log2 normalized fluorescence) was determined as 0.594.

Turning to TGGGACGTGGTA, the binding signal (log2 normalized fluorescence) came to 0.237.

Take TGACGCCACGTA: the binding signal (log2 normalized fluorescence) stood at 0.312.

Take TGAGGCGCCGTA: the binding signal (log2 normalized fluorescence) turned out to be 0.195.

Take TGATCAGCCGTA: the binding signal (log2 normalized fluorescence) is 0.0261.

Regarding TGATGATATGTA, the binding signal (log2 normalized fluorescence) is 0.0143.

For TGACACGTGTCT, the binding signal (log2 normalized fluorescence) was determined as 0.735.

Turning to TGAATCGTAGTA, the binding signal (log2 normalized fluorescence) was 0.112.

In the case of TGAACGAGTGTA, the binding signal (log2 normalized fluorescence) amounted to 0.0924.

Take TGAATTAGTGTA: the binding signal (log2 normalized fluorescence) is 0.0274.

TGACACCTAGTA: the binding signal (log2 normalized fluorescence) was 0.141.

In the case of TGAGAGGGGGTA, the binding signal (log2 normalized fluorescence) worked out at 0.749.

For the sequence TGAAGCTAGGTA, the binding signal (log2 normalized fluorescence) is -0.0387.

In the case of TGAAACACTGTA, the binding signal (log2 normalized fluorescence) was 0.309.

For the sequence TGATCATTTGTA, the binding signal (log2 normalized fluorescence) turned out to be 0.247.

For the sequence TGTTTCGTGGTA, the binding signal (log2 normalized fluorescence) came to 0.0525.
